# Experimental data: the supplement of paper PMC8728848
# The list shows a part of the results.
# Columns and labels:
# Assay in all cases: glycan array binding signal (z-score within array); higher = stronger binding
# Settings in all cases: glycan notation: IUPAC condensed, linker removed
# [1] = target: Neu5Ac(a2-6)Gal(b1-4)GlcNAc(b1-6)GalNAc
# How it was run: (§1)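 The Consortium for Functional Glycomics database supplied 3228 glycan arrays, of which those lacking an available protein sequence were dropped. The binding signal, a within-array Z-score, was averaged across arrays of the same protein sequence and across linkers. Negative scores can be read as non-binding.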
# [2] = target: Neu5Ac(a2-6)Gal(b1-4)GlcNAc(b1-6)[Gal(b1-3)GlcNAc(b1-3)]Gal(b1-4)Glc
# How it was run: as §1
# [3] = target: Neu5Ac(a2-6)Gal(b1-4)GlcNAc(b1-6)[Gal(b1-3)]GalNAc
# How it was run: as §1
# [4] = target: Neu5Ac(a2-6)Gal(b1-4)GlcNAc6S
# How it was run: as §1
# [5] = target: Neu5Ac(a2-6)GalNAc
# How it was run: as §1
# [6] = target: Neu5Ac(a2-6)GalNAc(b1-4)GlcNAc
# How it was run: as §1
# [7] = target: Neu5Ac(a2-6)GalNAc(b1-4)GlcNAc6S
# How it was run: as §1
# [8] = target: Neu5Ac(a2-6)GlcNAc(b1-4)GlcNAc
# How it was run: as §1
# [9] = target: Neu5Ac(a2-6)GlcNAc(b1-4)GlcNAc(b1-4)GlcNAc
# How it was run: as §1
# [10] = target: Neu5Ac(a2-8)Neu5Ac
# How it was run: as §1
# [11] = target: Neu5Ac(a2-8)Neu5Ac(a2-3)Gal(b1-3)GalNAc(b1-4)[Neu5Ac(a2-3)]Gal(b1-4)Glc
# How it was run: as §1
# [12] = target: Neu5Ac(a2-8)Neu5Ac(a2-3)Gal(b1-3)GalNAc(b1-4)[Neu5Ac(a2-8)Neu5Ac(a2-3)]Gal(b1-4)Glc
# How it was run: as §1
# [13] = target: Neu5Ac(a2-8)Neu5Ac(a2-3)Gal(b1-4)Glc
# How it was run: as §1
# [14] = target: Neu5Ac(a2-8)Neu5Ac(a2-3)Gal(b1-4)GlcNAc
# How it was run: as §1
# [15] = target: Neu5Ac(a2-8)Neu5Ac(a2-3)[Gal(b1-3)GalNAc(b1-4)]Gal(b1-4)Glc
# How it was run: as §1
# [16] = target: Neu5Ac(a2-8)Neu5Ac(a2-3)[GalNAc(b1-4)]Gal(b1-4)Glc
# How it was run: as §1
# [17] = target: Neu5Ac(a2-8)Neu5Ac(a2-8)Neu5Ac
# How it was run: as §1
# [18] = target: Neu5Ac(a2-8)Neu5Ac(a2-8)Neu5Ac(a2-3)Gal(b1-4)Glc
# How it was run: as §1
# [19] = target: Neu5Ac(a2-8)Neu5Ac(a2-8)Neu5Ac(a2-3)[Gal(b1-3)GalNAc(b1-4)]Gal(b1-4)Glc
# How it was run: as §1
# [20] = target: Neu5Ac(a2-8)Neu5Ac(a2-8)Neu5Ac(a2-3)[GalNAc(b1-4)]Gal(b1-4)Glc
# How it was run: as §1
# [21] = target: Neu5Ac(a2-8)Neu5Ac(a2-8)Neu5Ac(a2-8)Neu5Ac(a2-3)[GalNAc(b1-4)]Gal(b1-4)Glc
# How it was run: as §1
# [22] = target: Neu5Ac(a2-8)Neu5Gc(a2-3)Gal(b1-4)GlcNAc
# How it was run: as §1
# [23] = target: Neu5Ac(b2-6)Gal(b1-4)GlcNAc
# How it was run: as §1
# [24] = target: Neu5Ac(b2-6)GalNAc
# How it was run: as §1
# [25] = target: Neu5Ac9Ac(a2-3)Gal(b1-3)GlcNAc
# How it was run: as §1
# [26] = target: Neu5Ac9Ac(a2-3)Gal(b1-4)GlcNAc
# How it was run: as §1
# [27] = target: Neu5Ac9Ac(a2-6)Gal(b1-4)GlcNAc
# How it was run: as §1
# [28] = target: Neu5Gc(a2-3)Gal(b1-3)GlcNAc
# How it was run: as §1
# [29] = target: Neu5Gc(a2-3)Gal(b1-3)[Fuc(a1-4)]GlcNAc
# How it was run: as §1
# [30] = target: Neu5Gc(a2-3)Gal(b1-4)Glc
# How it was run: as §1
# [31] = target: Neu5Gc(a2-3)Gal(b1-4)GlcNAc
# How it was run: as §1
# [32] = target: Neu5Gc(a2-3)Gal(b1-4)GlcNAc(b1-3)Gal(b1-4)GlcNAc(b1-2)Man(a1-3)[Neu5Gc(a2-3)Gal(b1-4)GlcNAc(b1-3)Gal(b1-4)GlcNAc(b1-2)Man(a1-6)]Man(b1-4)GlcNAc(b1-4)GlcNAc
# How it was run: as §1
# [33] = target: Neu5Gc(a2-3)Gal(b1-4)[Fuc(a1-3)]GlcNAc
# How it was run: as §1
# [34] = target: Neu5Gc(a2-6)Gal(b1-4)GlcNAc
# How it was run: as §1
# [35] = target: Neu5Gc(a2-6)GalNAc
# How it was run: as §1
# [36] = target: Neu5Gc(a2-8)Neu5Ac(a2-3)Gal(b1-4)GlcNAc
# How it was run: as §1
# [37] = target: Neu5Gc(a2-8)Neu5Gc(a2-3)Gal(b1-4)GlcNAc
# How it was run: as §1
# [38] = target: Neu5Gc(a2-8)Neu5Gc(a2-3)Gal(b1-4)GlcNAc(b1-3)Gal(b1-4)GlcNAc
# How it was run: as §1
binder,measurement,setting,value
GS14009A-pdi-495-27-495 (Parabacteroides distasonis) (protein) FEEVNTDPDSPTDVPTTNLLAYSLYYTSYRLYDRWFAMDEPMTFCGYASKMTYIDESRYNFRTGVQDTNWEYLYRILNNLKDIEKRATFNETPNMLNVSKVMQVHLMQVATDRWRDVPYTDAAKMTDGILQPKYDKQEDIYPGLLATLKEAADGFADGGSDDLGEGDLLFGGDIEKWQRYCNSMRLRLAMRISEVSPALAKETVEEVMGNPTKYPIMESNDDNAFFWWIGTDPNYYEPMADGYRTRKTEYCAADVIVDHMNTREDPRRSSYFQPTKESVEAGEPKYVGYTIGAKANAVASKYSIWGARFFTDLAGFSPYMRVAEPWFCVAEASMLGWNTGISAEDAYNKAVTYSMEENSVSAEDIADYLANAGKFTNDKKQIYYEEWVAMFKQGMEGWSLYRRTGVPDNLYPAPGRPANYSNHNVPPFRSPYPDKERNLNNANCAPFDAEVVDNLWGKQMWWDTRTGVH,glycan array binding signal (z-score),[1],0.102
same,glycan array binding signal (z-score),[2],-0.519
same,glycan array binding signal (z-score),[3],0.564
same,glycan array binding signal (z-score),[4],-0.405
same,glycan array binding signal (z-score),[5],-0.021
same,glycan array binding signal (z-score),[6],-0.069
same,glycan array binding signal (z-score),[7],-0.361
same,glycan array binding signal (z-score),[8],-0.598
same,glycan array binding signal (z-score),[9],-0.171
same,glycan array binding signal (z-score),[10],-0.289
same,glycan array binding signal (z-score),[11],-0.074
same,glycan array binding signal (z-score),[12],-0.264
same,glycan array binding signal (z-score),[13],-0.466
same,glycan array binding signal (z-score),[14],0.444
same,glycan array binding signal (z-score),[15],1.13
same,glycan array binding signal (z-score),[16],0.357
same,glycan array binding signal (z-score),[17],0.027
same,glycan array binding signal (z-score),[18],-0.037
same,glycan array binding signal (z-score),[19],0.501
same,glycan array binding signal (z-score),[20],-0.405
same,glycan array binding signal (z-score),[21],-0.277
same,glycan array binding signal (z-score),[22],-0.169
same,glycan array binding signal (z-score),[23],-0.493
same,glycan array binding signal (z-score),[24],-0.455
same,glycan array binding signal (z-score),[25],-0.342
same,glycan array binding signal (z-score),[26],-0.016
same,glycan array binding signal (z-score),[27],-0.284
same,glycan array binding signal (z-score),[28],-0.144
same,glycan array binding signal (z-score),[29],-0.361
same,glycan array binding signal (z-score),[30],-0.286
same,glycan array binding signal (z-score),[31],-0.276
same,glycan array binding signal (z-score),[32],-0.109
same,glycan array binding signal (z-score),[33],-0.548
same,glycan array binding signal (z-score),[34],-0.394
same,glycan array binding signal (z-score),[35],-0.671
same,glycan array binding signal (z-score),[36],-0.282
same,glycan array binding signal (z-score),[37],-0.499
same,glycan array binding signal (z-score),[38],-0.092
